Laboratory results taken from the supplement of paper PMC11417369.
The other results are listed elsewhere or left out.

tested on: PfHDP1 homeodomain (GST-tagged); experiment: gcPBM binding intensity (ln(normalized median fluorescence intensity)); higher = stronger DNA binding
How it was run: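 Binding intensity values are the highest Masliner-normalised natural-log median intensity among replicate spots of either probe orientation. The binding step lasted 1 h in 1× PBS with 1% milk, 0.2 mg/ml BSA, 0.5% salmon testes DNA and 0.03% Triton X-100, using GST-tagged P. falciparum DNA-binding domains expressed in E. coli on an Agilent 4 × 180k array of primer-extended double-stranded 36-bp intergenic genomic probes plus negative controls. Alexa488 anti-GST antibody and a 488 nm scan detected bound protein.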

Sequence | gcPBM binding intensity (ln)
AAGGTAGAAATATGTTGTACGGTTTGGAGGAAGCAA [XGTACX_site1105] | 6.56
TGTTTTATTTTATTAGTGCATTTTTATTTATAATAG [GTGCAC_site9453] | 9.41
ATATAATAGTTATATTGTACATAAATTATACACCTT [XGTACX_site628] | 6.33
GACAAAAAATTAAAATAAAATAATAATATAATAAAA [GTGCAC_negctrl_site234] | 6.2
ATACGCACACATATATGTACATATTGTATATATATA [XGTACX_site3962] | 8.34
TATAAACACCCATATAAACACACATATAAACCAACA [CACACA_site8790] | 6.95
ATAATTAATAAATAATGTACATATATATTATATTTT [XGTACX_site8546] | 6.3
TGTGAAGTACCGAATGTGCACTGTGTGTGTTCTTTT [GTGCAC_site9613] | 9.07
TTTTTTTTTTTTTTTTTTTCTATTTTACTGTTTCGT [CACACA_negctrl_site850] | 6.18
TTAAAAAAAAAACACACACACATACACATATATATA [CACACA_site3299] | 7.04
TATATATATGGACACACACACATATAAATAAATAAA [CACACA_site4406] | 6.84
TTTTTATATTTTTGCACACATTCTTTACTCTTCAAA [CACACA_site2210] | 10.4
ATAGCTGTATTTAATACACACAAAACTTTCATTCCA [CACACA_site5868] | 6.71
GAGTGAGCTAATAAAAGTACGTAATAAACAAACGCA [XGTACX_site131] | 6.52
ACCATGAAAATATTATGTACATATGTATTATATATA [XGTACX_site408] | 6.64
TTTTTTTGTTTTGTTTTTTTTTTTTTTTTTTTTTTG [CACACA_negctrl_site570] | 5.67
TTACCGTAAAAATTTTGTACATAAAATAATATATAA [XGTACX_site532] | 6.61
GATATAAAATATTGGTGTACTTTTTTTTTTTTTTTT [XGTACX_site7174] | 6.52
GTATGTGTGTCAAGTCGTACTTACCTTTAAATTTTT [XGTACX_site2507] | 6.78

Sequence | gcPBM binding intensity (ln)
CACATACATATATATACACACAAATATATATACACA [CACACA_site8164] | 7.04
ATTATTTTAATTTTAATTTTTTTTTTTTTTTGTTTT [CACACA_negctrl_site1063] | 6.16
TATTTTTCCATAAAAATTTATATAGAAACAAATAAT [GTGCAC_negctrl_site103] | 6.46
CCCTTTTATTAAAATTCACACACATAAATTTTTATA [CACACA_site8611] | 6.74
TGCTTAATTTACGTGGGTACATACACCTCATATATT [XGTACX_site3093] | 6.97
ATATATGTATATTTTTGTACGCATAAATATATTTTT [XGTACX_site827] | 6.46
TTTTTATACAATTAGACACACACAAAAAGTATATAT [CACACA_site8272] | 6.81
TTAATACATATATATATATTATATATATATATATAT [TGCATGCA_negctrl_site177] | 8.89
AAAAAAAATAATAATACACACAATATGATATGTACA [CACACA_site850] | 6.38
GAATATGAATATTTGCGTACTTATATAACTGTTCTA [XGTACX_site883] | 6.59
ATACACATTCGAAATAACAAAAAAATACATACACAT [GTGCAC_negctrl_site628] | 6.99
ATGATTATTTTAAAAAGTACTAATTATTATTTTTTT [XGTACX_site7242] | 6.29
TACTATAAGATATATACACACAAGAAATACAAAACG [CACACA_site6764] | 7.47
TATATATAAATATATGTGCACTTTTTATATTTATAT | 9.06
ATATGGAATAATACGCGTACACACATATATATATTA [XGTACX_site307] | 6.76
TCTTGATTATATAGTACTACACATTATAAAAAAATT [XGTACX_site2465] | 6.69
TTTATATCATTACAAGTGCATATCATCATAAATTCT [GTGCAC_site9878] | 7.82
TTCATATATTTAGGACGTACTTTTATATTACTATAT [XGTACX_site6456] | 6.62
TTTTAAAAATTAAGTGCATGTCCTTATAAAAAAAAA [TGCATGCA_site845] | 7.17

Sequence | gcPBM binding intensity (ln)
AAAAAATAGAATATAAAAATAAAGGAATTAAATTAA [XGTACX_negctrl_site420] | 6.2
AATTTTTTTTTAATCATGCACACTGTTAAAAGAATA [CACACA_site1240] | 7.68
ATATATTGGAGCACAACACACACAAGTATATATATG [CACACA_site8435] | 8.11
AAAAAAAAAAAAAACACACAGAACAATATATAAATA [CACACA_site982] | 6.46
AAAAAAAAATACAAAATAGCAATAAATACACAAACG [GTGCAC_negctrl_site707] | 7.12
ACTACATAATACTATTCACACATTTTTTTTTTTTTT [CACACA_site5794] | 6.71
AAAAAAAAAAAAAAAACATGCACAAATTATAAGTGA [TGCATGCA_site378] | 8.34
ATAATACCCAAGCACACACACACACCGATATATATA [CACACA_site8344] | 7.06
AATTTATAAGAATAAAGTACTAAAGATACAACTTTA [XGTACX_site7153] | 6
TGTTATTATAACATTTTTTTCAAAATAGCTTTAGAA [CACACA_negctrl_site266] | 6.12
ATTAAAGGAAGCAAAACATGCAACAGCAATATTGCA [TGCATGCA_site452] | 6.57
AATTATATAACAAATTGTACGAATGAAAATATTATT [XGTACX_site4237] | 6.79
TAAAAATAGGAATACGCACACGATGATTAATTTATA [CACACA_site1835] | 6.41
ATTTTTTTTTTTTTTTTGGGGGGGTATACTTTTAAA [CACACA_negctrl_site1020] | 10.2
TTCCTTTTTTTTTATTGTACAAAAATATCAAAAAGG [XGTACX_site8505] | 6.35
TTTTTAATTTTATATACACACATAAAATATATGAAG [CACACA_site3145] | 6.64
TATAATGAGGATGATAGTACGTATTAGTATAAAAAA [XGTACX_site6623] | 6.75
TTTATATATATTTATACACACAAACATAATACTACT [CACACA_site5161] | 6.86
